These results are taken from PubChem BioAssay (NCI).

The subject of this test is NCI-H322M lung. Nature of the test: NCI-60 cell line screen, 48 h.

“And” between values parts separate entries of the source, which are not always exact repeats. Equal values may be shown once.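 Five compound concentrations were applied to cells in 96-well plates for 48 hours; endpoints were derived by simple linear interpolation of the resulting dose-response curve. Abbreviation: GI50, concentration required for 50% inhibition of growth. TGI marks complete inhibition of growth.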 A value given as a limit tells only on which side of the number the result lay.

Regarding `COc1cccc(Nc2nccc(-c3cnn4ncccc34)n2)c1`, the GI50 is 0.0799 µM and the TGI is above 20.7 µM. Take `Nc1ccc(Sc2c3ccccc3nc3ccccc23)cc1`: the TGI stood at 55.8 µM. `CCN(CC)CCNc1ccc2nc(C)n3c4ccc(O)cc4c(=O)c1c23` returned a TGI of 14.6 µM. Take `FC(F)(F)c1cc(Nc2ccc3cc(OCCCN4CCOCC4)ccc3n2)ccc1Cl`: the GI50 was 2.53 µM and the TGI is 7.53 µM. `CCCCCCCCOC(=O)c1cc([N+](=O)[O-])c(Sc2ncnc3nc[nH]c23)c([N+](=O)[O-])c1` returned a TGI of 22.4 µM. The same measure, in the same setting: with `NC(=O)C(=CNC(=S)Nc1cccc(C(F)(F)F)c1)C(N)=O` the figure was above 100 µM. Still for that read-out and setting: under `C=CC1(C)OC2(CCN(C(=O)OCC)CC2)OC1C` (stereo not drawn) stands above 100 µM. Still for that read-out and setting: under `COc1cccc(-c2c(-c3ccccc3)[nH]c(C)c2C(=O)ONC(=O)c2ccccc2)c1` stands 23.8 µM.

Take `Cc1ccc(OCC2OC(n3cnc4c(Br)nc(Br)nc43)CC2Oc2ccc(C)cc2)cc1` (stereo not drawn): the GI50 is 11.3 µM; the TGI was 21.8 µM and 13.3 µM. Turning to `O=C(N/N=C/C=C/c1ccc([N+](=O)[O-])o1)c1ccc(C(=O)N/N=C/C=C/c2ccc([N+](=O)[O-])o2)cc1`, the TGI was above 100 µM.

For `CCOC(=O)C(=O)Nc1ccccc1C(C)C`, the TGI was above 100 µM. Turning to `COc1ccc(-c2cc(=O)c3c(O)cc(O)cc3o2)c(OC)c1OC`, the TGI is above 100 µM. For the molecule `CN1CCN(Cc2cc(NC(=O)c3cccc(C#Cc4cccc5[nH]nc(N)c45)c3)cc(C(F)(F)F)c2)CC1`, the GI50 is 1.97 µM and the TGI was found to be 3.57 µM. For the molecule `COc1cc2c[n+](C)c3c(c2cc1OC)Cc1cc2c(cc1-3)OCO2`, the TGI is above 100 µM.

Take `CC(O)[C@@]1(c2ccccc2)CC2(CCN(C)CC2)O[C@H]1C` (stereo partly drawn): the TGI was above 100 µM. For `Cn1c2ccccc2c2c(=O)n(CCCC(=O)OC(=NC3CCCCC3)NC3CCCCC3)c3c(-c4ccccc4)nnn3c21`, the GI50 was above 100 µM and the TGI is above 100 µM. `CC1(C)C2CCC(O)(C2)C1N` (stereo not drawn): the TGI is above 100 µM. `CCCCCC[C@H](C)NC(=O)c1ccc(Nc2nc3ccccc3c3occc23)cc1`: the GI50 was 5.37 µM and the TGI turned out to be 55.7 µM.

`COC1CC(O[C@H]2CC[C@@]3(C)[C@@H](CC[C@]4(O)[C@@H]3CC[C@]3(C)[C@@H](C(C)=O)[C@H](OC(=O)CC(C)C)[C@@H](OC(=O)c5ccccc5)[C@@]34O)C2)OC(C)C1OC1CC(OC)C(OC2OC(C)C(O)C(OC)C2O)C(C)O1` (stereo partly drawn): the TGI was above 25 µM. Take `Nc1c(F)cc(-c2nc3cc(F)ccc3[se]2)cc1Br`: the GI50 was 0.315 µM and the TGI is above 100 µM.

As to `C/C(=N/N=C(N)N)c1ccc(NC(=O)Nc2ccc(/C(C)=N/N=C(N)N)cc2)cc1`, the GI50 is 36.1 µM and the TGI is above 94 µM. For the molecule `C#Cc1cccc(NC(=O)c2ccc(NC(=O)CCl)cc2)c1`, the GI50 is above 82.5 µM and the TGI was above 82.5 µM. With `O=C1NC(c2cccc(OCc3ccccc3)c2)Nc2ccccc21` (stereo not drawn), the TGI was determined as 58.8 µM. `COC(=O)C(=O)C(C(=O)C(=O)Nc1cc(C)ccc1C)c1nc2ccc(C(=O)c3ccccc3)cc2[nH]c1=O` (stereo not drawn): the TGI was above 100 µM. Take `O=C(C/C=C/c1ccccc1)c1ccccc1`: the TGI was above 100 µM.

`c1ccc([P+](c2ccccc2)(c2ccccc2)C2c3ccccc3-c3ccccc32)cc1`: the TGI was determined as 6.65 µM. Same read-out and setting: under `O=C1CCCc2ccc3c(c21)CC1(Cc2ccccc2C1)C3` stands 68.3 µM. On to `COC(=O)[C@]12CC[C@@H](C)[C@H](C)[C@@H]1C1=CC[C@@H]3[C@@]4(C)C(C=O)=C[C@@](C)(COC(=O)/C=C/c5ccccc5)[C@@H]4[C@H](O)C[C@@]3(C)[C@]1(C)CC2`, for which the GI50 was 5.71 µM and the TGI stood at 81.5 µM. Consider `CN(C)c1ccc(N=C2C=CC(=O)c3ccccc32)cc1`, for which the GI50 was 3.13 µM and the TGI was 11.9 µM. Take `O=C1/C(=C/c2ccc(Cl)cc2)CSC/C1=C\c1ccc(Cl)cc1`: the TGI was found to be 24.5 µM.

Molecule `C/C(=N\NC(=O)CC(=O)N(C(=O)c1ccc(Cl)cc1)c1ccc(C)cc1)c1ccccc1O` had a TGI above 100 µM. Same read-out and setting: under `CCOP1(=O)C=C(C)C(=C(Cl)Cl)C(C)=C1` (stereo not drawn) stands 65.4 µM. Same read-out and setting: under `O=c1oc2ccc([N+](=O)[O-])cc2cc1Br` stands above 100 µM; under `Clc1c2ccccc2nc2c1[nH]c1ccccc12`, above 100 µM. Still for that read-out and setting: with `CN(C)c1ccc2nc(CC(O)(C(F)(F)F)C(F)(F)F)ccc2c1` the figure was above 10 µM.

Turning to `C[CH2][Sn]([CH2]C)([O]C(=O)c1ccc(OC)c(OC)c1OC)[O]C(=O)c1ccc(OC)c(OC)c1OC`, the GI50 was above 100 µM and the TGI is above 100 µM. `CCOC(=O)C(=O)NC12CC3CC(CC(C3)C1)C2`: the TGI is above 100 µM. Take `CN(C(=O)c1ccc(OCCCC(=O)O)c(Cl)c1Cl)C1CCCC1`: the TGI is above 100 µM. Same read-out and setting: with `Nc1nc(=S)n(-c2ccc(Cl)cc2)c2nc3ccccc3cc12` the figure was above 100 µM; with `COc1ccc2nc(NC(=O)C(=O)NNC(=O)c3ccncc3)sc2c1`, above 100 µM; with `O=C(O)Cc1cccc2c(=O)c3cccc([N+](=O)[O-])c3oc12`, above 100 µM. For `COc1ccc(N(C)c2nc(Cl)nc3cnn(C)c23)cc1`, the GI50 is below 0.01 µM and the TGI was above 100 µM. The molecule `CN(C(=O)c1ccco1)C(=S)N1CCN(c2ccccn2)CC1` came in with a TGI above 100 µM. In the case of `C[C@@H](Oc1cc(-n2cnc3ccc(OC[C@@H](O)CO)cc32)sc1C(N)=O)c1ccccc1Cl`, the GI50 is 8.63 µM and the TGI is above 25 µM. `NC(Cc1ccc(B(O)O)cc1)C(=O)NC(CO)CO` (stereo not drawn) yielded a TGI above 100 µM.

In turn, `CCOC(=O)C(OP(=O)(OCC)OCC)C(F)(F)F` (stereo not drawn) registered a TGI above 100 µM. With `Cc1nccc2c3ccc(OCc4cn(-c5ccc(Cl)cc5)nn4)cc3n(CC(C)C)c12`, the GI50 was 10.9 µM and the TGI was above 33.3 µM.

Consider `O=Nc1c(O)cc(Nc2cccnc2)c2ccccc12`, for which the TGI is above 100 µM. In the case of `CCC[CH2][Pb]([Cl])([CH2]CCC)[CH2]CCC`, the GI50 is 0.0306 µM and the TGI was 0.0996 µM. Turning to `COc1cccc2c1C(=O)c1c(O)c3c(c(O)c1C2=O)CC(O)(C(=O)CO)CC3OC1CC(N)C(O)C(C)O1` (stereo not drawn), the GI50 is 44.9 µg/mL and 101 µg/mL; the TGI is 75 µg/mL and > 150 µg/mL. `CC[C@H](C)[C@H](NC(=O)[C@@]1(O)[C@H](O)[C@]2(CC)C=CCN3CC[C@@]4(c5cc(Br)c(OC)cc5N(C)[C@@H]14)[C@@H]32)C(=O)OC` returned a TGI above 100 µM. On to `O=C(O)CCC(C(=O)O)N1C(=O)C2C3CCC(C3)C2C1=O` (stereo not drawn), for which the TGI was above 100 µM.

Regarding `CN(C)CCNC(=O)NC[C@H]1CC[C@@H]2[C@H](O1)c1cc(C(F)(F)F)ccc1N[C@H]2c1ccccc1`, the GI50 is 0.0948 µM and the TGI was above 41 µM.

For `COc1ccc2c(c1)C(=O)c1c-2c(Nc2cccc(C(C)=O)c2)nc2ccccc12`, the GI50 was 24 µM and the TGI is 85.3 µM. Consider `COc1ccc2c(c1OC(C)=O)C1=CC(=O)CCC13CCNC3C2` (stereo not drawn), for which the TGI is above 100 µM. On to `CCN=C(C#N)NCC`, for which the TGI was above 100 µM. Consider `Fc1ccc(Nc2nc3ccccc3c3occc23)cc1`, for which the TGI came to 3.81 µM.

As for `C=CCCCCCCCCC(=O)O`, the TGI came out at 139 µM.

As for `CN(C)CCOC(=O)Nc1nc2ccc(Sc3ccccc3)cc2[nH]1`, the GI50 is 10.3 µM and the TGI worked out at 24.1 µM. The like results for `CCn1ccc(NS(=O)(=O)c2ccc(N)cc2)nc1=O` were, in that order, above 100 µM and above 100 µM. `C/C(=N/Nc1nc(C)cc(=O)[nH]1)C(=O)O` displayed a TGI above 100 µM.

Molecule `Cc1ccc(NC(=O)OCC(COc2ccc(Cl)cc2Cl)OC(=O)Nc2ccc(C)cc2)cc1` (stereo not drawn) yielded a TGI above 100 µM. The same measure, in the same setting: with `S=C=NC1CCC(c2cc3ccccc3s2)(N2CCCCC2)CC1` (stereo not drawn) the figure was 16 µM; with `O=C(NCCCN1CCN(CCCNC(=O)Nc2cccc3ccccc23)CC1)Nc1cccc2ccccc12`, 31.6 µM; with `C[Si](C)(C)C(Sc1ccccc1)(Sc1ccccc1)Sc1ccccc1`, above 100 µM. On the same count and under the same terms, under `COC1=CC(=O)C2=C(C[C@@]3(C)C(=C2)C(CO)=CC[C@H]3O)C1=O` stands above 100 µM; under `COC(=O)/C(=N\NC(N)=O)C(C(=O)C=C(C)C)C(=O)C(=O)Nc1ccc(Cl)c(Cl)c1` (stereo not drawn), above 100 µM; under `Cn1cnc([N+](=O)[O-])c1Sc1nccc(=O)[nH]1`, above 100 µM.

Molecule `Cc1c(F)c(NC(=O)CN(C)C)c2c(=O)cc(-c3ccc(NC(=O)CN(C)C)c(F)c3)oc2c1F` came in with a TGI of 31.8 µM. With `CCCNC(=O)N1CC(CN2CCN(c3ccccc3)CC2)O/C1=N/C(=O)Nc1ccccc1` (stereo not drawn), the TGI is above 100 µM.

In the case of `N#CC1C(=O)NC(c2ccccc2[N+](=O)[O-])c2sc3c(F)cccc3c21` (stereo not drawn), the GI50 was 7.51 µM and the TGI turned out to be 55.7 µM. In turn, `O=C1c2ccccc2C(=O)c2c(NCCCN3CCOCC3)ccc(NCCCN3CCOCC3)c21` displayed a TGI of 34.6 µM. Consider `O=C(/C=C/OC(=O)c1cccc(Cl)c1)c1ccc(Cl)cc1`, for which the GI50 is above 56.4 µM and the TGI was above 100 µM.

For the molecule `COC(=O)C1=NN2c3ccccc3CN([C@@H](C)c3ccccc3)C(=O)[C@@H]2[C@H]1c1ccccc1`, the TGI was above 100 µM. The same measure, in the same setting: under `O=C1C=CC2(C=C1)C[C@H](NC(=O)OCc1ccccc1)C(=O)O2` stands above 72.1 µM; under `N#Cc1c(N2CCN(c3ccc([N+](=O)[O-])cc3)CC2)[n+](=O)c2ccccc2n1[O-]`, above 100 µM. Still for that read-out and setting: under `CCCCc1ccc(C#CC#Cc2ccc(CCCC)s2)s1` stands above 100 µM.

On to `CCCCCCCC(=O)[O][Hg][CH2]C1COC([CH2][Hg][O]C(=O)CCCCCCC)CO1` (stereo not drawn), for which the GI50 is 17.7 µM and the TGI amounted to 31.6 µM. Take `CNC(=O)NS(=O)(=O)c1ccc(C)cc1`: the TGI was above 100 µM. Still for that read-out and setting: with `CCCNC(=O)N(C)C(=O)N1N=C(c2ccccc2)C1c1ccccc1` (stereo not drawn) the figure was above 100 µM; with `CC1=NN(c2nc(N)nc(/C(C#N)=C\c3cccc([N+](=O)[O-])c3)n2)C(C)(C)C1`, above 100 µM. As to `Cc1cc(=O)oc2cc(OC/C=C3\CCC(=O)O3)ccc12`, the GI50 was 33.3 µM and the TGI was above 92 µM.

Regarding `CC(=O)OCC1OC(n2nc(Cc3ccccc3)c(=S)[nH]c2=S)C(OC(C)=O)C(OC(C)=O)C1OC(C)=O` (stereo not drawn), the TGI is 71.2 µM.
